Source: PMC4336329 (PLoS ONE, 2015)
Among all 310,000 compounds or so, about 14,000 (4.5%) showed an effect of 50% or more. The effect is printed as a negative number. The list shows a part of the results.

These molecules were tested against human ether-à-go-go-related gene (hERG) potassium channel (human, UniProt Q12809) (assay: primary screen, population patch clamp on CHO cells stably expressing hERG).
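Note: peak tail current of the secondary pulse compared with the same well before compound.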

Sequence of human ether-à-go-go-related gene (hERG) potassium channel (Q12809 whole entry, looked up): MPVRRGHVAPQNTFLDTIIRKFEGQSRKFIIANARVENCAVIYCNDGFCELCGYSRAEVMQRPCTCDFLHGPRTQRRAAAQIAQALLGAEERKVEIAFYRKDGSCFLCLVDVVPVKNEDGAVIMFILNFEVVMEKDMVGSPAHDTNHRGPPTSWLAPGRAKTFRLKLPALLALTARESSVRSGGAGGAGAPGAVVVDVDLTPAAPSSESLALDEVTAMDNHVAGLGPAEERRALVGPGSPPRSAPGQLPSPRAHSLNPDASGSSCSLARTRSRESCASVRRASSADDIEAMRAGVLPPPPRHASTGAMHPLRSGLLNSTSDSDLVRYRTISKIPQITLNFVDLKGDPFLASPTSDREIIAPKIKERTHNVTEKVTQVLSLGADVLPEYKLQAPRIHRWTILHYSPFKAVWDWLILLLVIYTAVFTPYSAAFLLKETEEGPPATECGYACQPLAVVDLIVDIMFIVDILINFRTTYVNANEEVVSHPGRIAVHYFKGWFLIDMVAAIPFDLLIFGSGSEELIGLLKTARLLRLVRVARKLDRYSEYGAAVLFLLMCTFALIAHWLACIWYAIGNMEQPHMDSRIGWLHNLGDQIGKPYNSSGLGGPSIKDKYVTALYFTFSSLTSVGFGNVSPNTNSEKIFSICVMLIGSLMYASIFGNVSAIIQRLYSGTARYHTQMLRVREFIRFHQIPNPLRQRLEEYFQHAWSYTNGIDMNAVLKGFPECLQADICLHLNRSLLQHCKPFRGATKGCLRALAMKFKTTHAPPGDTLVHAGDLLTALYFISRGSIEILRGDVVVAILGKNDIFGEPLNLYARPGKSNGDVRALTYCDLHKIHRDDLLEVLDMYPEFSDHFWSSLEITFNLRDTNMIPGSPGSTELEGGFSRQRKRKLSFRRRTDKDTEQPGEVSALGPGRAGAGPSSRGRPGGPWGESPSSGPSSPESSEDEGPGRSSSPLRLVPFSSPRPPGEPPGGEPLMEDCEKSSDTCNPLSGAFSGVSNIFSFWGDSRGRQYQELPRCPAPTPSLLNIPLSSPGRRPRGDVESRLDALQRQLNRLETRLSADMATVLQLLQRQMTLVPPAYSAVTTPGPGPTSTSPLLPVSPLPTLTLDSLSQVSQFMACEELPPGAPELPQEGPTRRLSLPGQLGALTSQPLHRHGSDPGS

Row | Compound | hERG current change (%, negative = inhibition) at 10uM [%]
1 | Cc1[nH]c2ccccc2c1C(=O)C(=O)NCCOc1ccccc1 | 1.04
2 | Cc1cccc(S(=O)(=O)NCCNS(=O)(=O)c2cccc(C)c2)c1 | 15.2
3 | Cc1ccc(C)c(/C=N/Nc2nc3ccccc3c(=O)n2O)c1 | -0.538
4 | COc1cccc(NC(=O)CCS(=O)(=O)c2ccc(Br)cc2)c1 | -10.6
5 | O=C(CSc1nc2ccccc2c(=O)n1Cc1ccco1)NCc1ccccc1 | -29.3
6 | COc1ccc(-c2nsc3c(N4CCN(C(=O)c5ccco5)CC4)ncnc23)cc1 | 10.9
7 | COc1cc(Br)cc(-c2nc3c(c(=O)[nH]c(=O)n3Cc3ccccc3)n2C)c1O | -4.1
8 | CCN(CC)c1ccc2cc(C(N)=O)/c(=N\NC(=O)c3ccncc3)oc2c1 | -16.9
9 | Nc1nnc(CCS(=O)(=O)c2ccc(Br)cc2)s1 | 21.1
10 | CC(=O)Oc1c(C)c(C)c2c(c1C)CC[C@@](C)(CCC[C@H](C)CCC[C@H](C)CCCC(C)C)O2 | 7.93
11 | Cc1noc(C)c1S(=O)(=O)Nc1ccc(C(=O)NC2CCCCC2)cc1 | 0.971
12 | COc1cc(OC)c(/C=N/n2c(C)nnc2C)c(OC)c1 | 6.85
13 | Nc1c(C(=O)c2ccc(Cl)cc2)oc2ccccc12 | 16.6
14 | Cn1nccc1NC(=O)COCC(=O)O | 3.82
15 | CCCCn1c2nc3ccccc3nc2c2c(=O)n(C(C)CC)cnc21 (centres unmarked) | -18.2
16 | O=C(Nc1ccccc1N1CCOCC1)c1cccs1 | -11.9
17 | CCn1cc(C(=O)NCc2ccc(Cl)cc2)c(=O)c2cc(S(=O)(=O)N(C)C)ccc21 | -4.34
18 | CCN1CCN(C(c2cc(OC)ccc2OC)c2nnnn2Cc2ccccc2)CC1.Cl (centres unmarked) | -18.9
19 | Cc1c(Cl)c([N+](=O)[O-])nn1CC(=O)NCc1cccs1 | 3.07
20 | O=C(COC(=O)C1(c2cccc(F)c2)CCCC1)NCc1ccc2c(c1)OCO2 | -10.2
21 | Cc1nc2ccn(Cc3ccccc3)c(=O)c2cc1C(=O)N1CCN(c2ccccc2)CC1 | -74
22 | CCCOC(=O)C1[C@H]2C(=O)N(Cc3ccco3)C[C@]23C=C[C@H]1O3 (some centres unmarked) | 9.97
23 | O=C(O)CCCCCN1C(=O)C(O)=C(C(=O)/C=C/c2ccccc2)C1c1ccccc1[N+](=O)[O-] (centres unmarked) | 15.6

Row | Compound | hERG current change (%, negative = inhibition) at 10uM [%]
24 | COc1ccc(NC(=O)CCc2c(C)nn(-c3ccc(N4CCOCC4)nn3)c2C)cc1 | -1.21
25 | CCC/C(O)=C1\C(=O)CCCC1=NCCc1c(C)[nH]c2ccc(C)cc12 | -4.82
26 | CCOC(=O)c1ccc(-c2ccc3c(c2)CCC3)nc1C | 12.6
27 | CCc1c(C)nc2c(C#N)c[nH]n2c1=O | 31.2
28 | COc1ccccc1NC(=O)CSc1ncnc2c1oc1ccccc12 | 12.2
29 | CCS(=O)(=O)c1ccc2oc(SCC(=O)NCc3ccccc3)nc2c1 | -19.9
30 | N#CC1=C(N)Oc2cc(N)ccc2C1C1CCCCC1 (centres unmarked) | -23.6
31 | CCCCCCC(=O)N(O)C1CC(=O)N(c2ccc(C)cc2)C1=O (centres unmarked) | -8.51
32 | N#Cc1ccc(COc2cccnc2[N+](=O)[O-])cc1 | -26.3
33 | N#C/C(=N\Nc1ccc(Br)cc1)C(=N)N1CCOCC1 | -68.9
34 | CCCNc1nc(NCC)nc(OC)n1 | 26
35 | O=C(Nc1ccc(F)c([N+](=O)[O-])c1)N1C[C@H]2C[C@@H](C1)c1cccc(=O)n1C2 | 25.7
36 | CN1CCN(C(=O)c2ccc(N(Cc3ccccc3Cl)S(C)(=O)=O)cc2)CC1 | 2.74
37 | CCOc1cc(C(c2c(C)[nH][nH]c2=O)c2c(C)[nH][nH]c2=O)cc([N+](=O)[O-])c1O | 19
38 | O=C(CCS(=O)(=O)c1ccccc1)Nc1nnc(C(F)(F)F)s1 | 9.6
39 | COC(=O)C1=C(NC(=O)c2ccccc2[N+](=O)[O-])CCS1 | 6.08
40 | CCO[C@H]1OC(C(=O)O)=C[C@@H](C(C)(C)C)[C@@H]1CCCO | 7.12
41 | Cc1nn(CC(=O)Nc2nnc(CC(=O)N3CCCC3)s2)c(=O)c2ccccc12 | 14.7
42 | CC(C)NCc1cc(Br)ccc1OCc1ccccc1.Cl | -61.8
43 | Cc1c(C)c2ccc(OCC(=O)Nc3ccccn3)c(C)c2oc1=O | 21.7
44 | CCOc1cccc(CN2CCCC(N3CCc4ccccc4C3)C2)c1O (centres unmarked) | -52.9
45 | Cc1ccc(OCC(=O)Nc2cccc(S(=O)(=O)NC3=NCCCCC3)c2)cc1C | -8.26
46 | COc1ccc(NC(=O)Nc2c[nH]c(=O)[nH]c2=O)cc1 | 17.1

Row | Compound | hERG current change (%, negative = inhibition) at 10uM [%]
47 | CC[C@H](C)Cc1cn([C@@H](CCCCN)C(=O)NCCCCCCCCCCC(=O)N2CCNCC2)nn1 | 17.3
48 | CCCN(C(=O)Cn1ncc2c([nH]c3ccccc32)c1=O)c1ccccc1C | 15.3
49 | CCN1C(=O)N[C@@H](c2cccc(C(F)(F)F)c2)C(C(=O)OC)=C1C | 6.24
50 | COc1ccc(NC(=O)N2CCCC2C(=O)Nc2cccc(C)c2C)cc1 (centres unmarked) | 4.86
51 | CCOC(=O)C1=C(CC)OC(N)=C(C#N)C1c1cccs1 (centres unmarked) | -0.872
52 | CC(O)CNc1cnccn1 (centres unmarked) | 8.76
53 | CC(OC(=O)c1ccccc1NCCO)C(=O)NC1CCCCC1C (centres unmarked) | -7.74
54 | CCCc1n(CC(O)COCC2CC=CCC2)c2ccccc2[n+]1C.[I-] (centres unmarked) | -42.4
55 | CCOc1ccc(NC(=O)CS(=O)CC(=O)NC2CCCc3ccccc32)cc1 (centres unmarked) | 14
56 | COc1cc(NC(=O)C/C(C)=N/NC(=O)C2CCCCC2)c(OC)cc1Cl | 9.28
57 | CC1CCCC(NS(=O)(=O)c2ccc3c(c2)OCCO3)C1C (centres unmarked) | -20.9
58 | Cc1ccc2nc3c(cc(C(=O)NCC4CCCO4)c(=N)n3CCCOC(C)C)c(=O)n2c1 (centres unmarked) | -71.8
59 | COc1ccccc1NC(=O)C1CCN(C(=O)NCc2ccccc2)CC1 | -2.19
60 | COC(=O)CSc1cc([N+](=O)[O-])cc2c1c(C1OCCO1)nn2-c1ccccc1 | -5.4
61 | O=C(NC1CCCCC1)C(c1ccco1)N(C(=O)c1csnn1)c1ccc(Cl)cc1 (centres unmarked) | -27.8
62 | c1ccc(Cn2ccnc2)cc1 | 19.6
63 | COc1ccccc1OCCNC(=O)C1CC(=O)N(c2ccccc2OC)C1 (centres unmarked) | 1.49
64 | COc1ccc(-c2csc(Nc3ccccc3)n2)cc1 | 14
65 | CCc1c(C(=O)Nc2ccc(C)c(C)c2)[nH]c(C)c1C(C)=O | 11.1
66 | CCOP(=O)(O)c1cccc(OCCOCCOc2cccc(P(=O)(O)OCC)c2)c1 | 4.45
67 | COc1cc([N+](=O)[O-])ccc1N | 14.2
68 | O=[N+]([O-])c1cc2c(cc1C=Nc1ccccc1)OCO2 | 1.04
69 | O=C1N=NC2=C1c1c3ccccc3c(O)n1CC2 | 3.49

Row | Compound | hERG current change (%, negative = inhibition) at 10uM [%]
70 | Cc1nn(Cc2c(F)cccc2Cl)c(=O)c2ccccc12 | 14.4
71 | COc1ccc2c(c1)c(CC[NH3+])c(C)n2Cc1ccccc1.[Cl-] | -2.4
72 | COc1ccc(N=c2oc3cc(O)ccc3cc2C(=O)Nc2ccccn2)cc1OC | 12.9
73 | Cc1cc(C)cc(NS(=O)(=O)c2ccc(NC(=S)NC(=O)c3cccs3)cc2)c1 | -0.549
74 | O=c1c(Cl)c(N2CCN(c3ccc(F)cc3)CC2)cnn1C12CC3CC(CC(C3)C1)C2 | -34.5
75 | c1ccc(CCCNc2ncccn2)cc1 | 7.93
76 | CCOc1ccc(CCNC(=O)c2[nH]c(C)c(C(C)=O)c2C)cc1OCC | 12.5
77 | Cc1ccccc1CNC(=O)c1ccc(Cl)c([N+](=O)[O-])c1 | 10.3
78 | Cc1ccc(N(CC(=O)Nc2ccc(S(=O)(=O)N3CCOCC3)cc2)S(C)(=O)=O)cc1C | -4.58
79 | O=C(Nc1cc(Cl)ccc1N1CCOCC1)c1cccnc1Cl | 1.8
80 | Cc1ccc(C)c(N(C(=O)Cn2nnc3ccccc32)C(C(=O)NC(C)(C)C)c2ccsc2)c1 (centres unmarked) | 1.06
81 | CN1CCN(/C=N/c2c(C#N)cnn2Cc2ccccc2)CC1 | -19.2
82 | Cc1ccc2nc3n(c(=O)c2c1)CCCCC3 | 10
83 | CC(C)OCCCNS(=O)(=O)c1ccc2ccccc2c1 | -13.4
84 | COc1ccccc1Cn1c(=O)c2ccccc2n2c(Sc3ncnc4sccc34)nnc12 | -10.6
85 | O=C(O)COc1ccccc1/C=N/Nc1ccc(S(=O)(=O)Nc2ccc(Cl)cc2)cc1[N+](=O)[O-] | 25.2
86 | CC(N)C(=O)c1ccco1.Cl (centres unmarked) | 13.2
87 | Cc1ccc(S(=O)(=O)CCC(=O)N(CCN2CCOCC2)c2nc3ccccc3s2)cc1.Cl | 13.4
88 | COc1cc2nc(C3CCC3)n(NC(=O)C3CCC(OC)CC3)c(=O)c2cc1OC (centres unmarked) | -7.1
89 | CC(C)CCNC(=O)C1CC(c2cccc(F)c2)=NO1 (centres unmarked) | -2.54
